Measured values: article PMC11445476, “CHC22 clathrin recruitment to the early secretory pathway requires two-site interaction with SNX5 and p115” (The EMBO Journal, 2024)
Results are given in words; binding and its absence hold for the method and conditions named. For some of these results: Binding seen in cells or lysates may run through a third protein. Some binding calls cover weakened binding; strength is not graded here. For some of these results: Sequences can lack the tags named with a protein. Each block holds one molecule with its values, some of them ahead of it.

Protein sequences, listed by entry. Tags and fused reporters are not part of them. Residues count along the entry.
UniProt Q00610, residues 1-364: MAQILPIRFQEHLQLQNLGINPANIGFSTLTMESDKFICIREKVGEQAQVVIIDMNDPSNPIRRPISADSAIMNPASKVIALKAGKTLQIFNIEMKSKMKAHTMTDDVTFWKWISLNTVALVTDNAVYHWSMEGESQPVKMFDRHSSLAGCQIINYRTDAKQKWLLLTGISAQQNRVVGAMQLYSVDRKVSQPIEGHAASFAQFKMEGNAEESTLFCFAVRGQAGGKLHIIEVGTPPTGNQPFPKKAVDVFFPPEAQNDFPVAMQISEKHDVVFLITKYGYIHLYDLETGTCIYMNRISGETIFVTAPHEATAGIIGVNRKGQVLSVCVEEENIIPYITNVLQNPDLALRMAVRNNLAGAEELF
UniProt Q13596: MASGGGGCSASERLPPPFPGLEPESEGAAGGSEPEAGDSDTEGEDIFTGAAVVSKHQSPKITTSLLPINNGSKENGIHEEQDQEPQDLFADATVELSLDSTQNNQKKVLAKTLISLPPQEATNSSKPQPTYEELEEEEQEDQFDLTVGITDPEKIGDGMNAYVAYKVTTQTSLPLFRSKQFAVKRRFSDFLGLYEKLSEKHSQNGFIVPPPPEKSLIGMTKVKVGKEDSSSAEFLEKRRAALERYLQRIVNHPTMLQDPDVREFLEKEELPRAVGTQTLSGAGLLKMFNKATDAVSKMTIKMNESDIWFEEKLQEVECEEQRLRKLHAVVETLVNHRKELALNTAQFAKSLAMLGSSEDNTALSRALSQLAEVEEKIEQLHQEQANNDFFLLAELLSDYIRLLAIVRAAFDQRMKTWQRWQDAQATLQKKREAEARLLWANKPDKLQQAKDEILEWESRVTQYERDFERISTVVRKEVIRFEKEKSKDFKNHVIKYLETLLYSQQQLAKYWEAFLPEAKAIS

Columns and labels:
[1] = target: T1, full-length GST-p115 (UniProt O60763 1-962); assay: pull-down; GST, GST-GGA2-HE or GST-p115 on glutathione beads, 12.5 µg purified His-bdSUMO-CHC17 TD in 250 µl CHC17 PD buffer for 60 min, immunoblot; both purified
T1 construct: p115, full-length, residues 1-962, amplified from pIY119 into pGEX3; not shown: GST, N-terminal, kept
T1 sequence (looked up): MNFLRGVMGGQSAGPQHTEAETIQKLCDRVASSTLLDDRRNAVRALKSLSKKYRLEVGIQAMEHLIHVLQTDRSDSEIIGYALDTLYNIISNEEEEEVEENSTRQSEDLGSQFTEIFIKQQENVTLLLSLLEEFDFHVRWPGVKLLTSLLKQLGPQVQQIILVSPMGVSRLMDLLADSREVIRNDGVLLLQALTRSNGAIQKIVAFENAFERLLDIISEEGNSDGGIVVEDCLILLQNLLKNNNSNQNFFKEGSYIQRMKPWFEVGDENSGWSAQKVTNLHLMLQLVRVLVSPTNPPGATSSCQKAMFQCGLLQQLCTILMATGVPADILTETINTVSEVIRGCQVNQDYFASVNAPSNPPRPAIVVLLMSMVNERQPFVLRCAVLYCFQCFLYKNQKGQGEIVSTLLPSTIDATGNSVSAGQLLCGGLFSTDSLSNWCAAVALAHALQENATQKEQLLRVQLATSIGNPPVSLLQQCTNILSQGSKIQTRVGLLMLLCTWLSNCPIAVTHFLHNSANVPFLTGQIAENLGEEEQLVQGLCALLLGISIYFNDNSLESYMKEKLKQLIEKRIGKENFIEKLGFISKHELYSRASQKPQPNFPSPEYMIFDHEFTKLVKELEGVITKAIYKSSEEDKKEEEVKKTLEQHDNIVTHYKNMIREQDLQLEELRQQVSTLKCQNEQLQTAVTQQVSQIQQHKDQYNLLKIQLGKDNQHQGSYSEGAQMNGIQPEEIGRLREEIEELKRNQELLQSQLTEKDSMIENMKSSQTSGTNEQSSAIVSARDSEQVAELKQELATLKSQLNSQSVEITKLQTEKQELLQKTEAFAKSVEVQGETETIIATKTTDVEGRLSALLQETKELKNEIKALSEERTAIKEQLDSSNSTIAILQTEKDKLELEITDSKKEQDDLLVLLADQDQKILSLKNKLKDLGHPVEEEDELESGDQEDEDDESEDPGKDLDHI

[2] = target: CHC22 clathrin heavy chain (endogenous) (human (endogenous in HeLa and AB1190 myotubes)) (UniProt P53675); assay: co-IP; anti-CHC22 antibody with post-nuclear HeLa lysate overnight at 4 °C, protein G Sepharose, immunoblot; control parental HeLa, also ΔSNX1/2 and ΔVPS35 lines
[3] = target: CHC22 clathrin heavy chain (endogenous) (human (endogenous in HeLa and AB1190 myotubes)) (UniProt P53675); assay: proximity ligation; fixed HeLa cells (control parental and ΔSNX5/6), antibodies to CHC22 and p115 with Duolink PLA probes; puncta per cell counted
[4] = target: sfGFP-CHC22 wild-type (human) (UniProt P53675); assay: co-IP; GFP-Trap agarose beads with lysate of HeLa cells transfected with GFP-tagged clathrin heavy chains, 1 h at 4 °C, immunoblot for GFP and p115
[5] = target: T2, sfGFP-ΔTD-CHC22 (human) (UniProt P53675); assay: as above
T2 sequence: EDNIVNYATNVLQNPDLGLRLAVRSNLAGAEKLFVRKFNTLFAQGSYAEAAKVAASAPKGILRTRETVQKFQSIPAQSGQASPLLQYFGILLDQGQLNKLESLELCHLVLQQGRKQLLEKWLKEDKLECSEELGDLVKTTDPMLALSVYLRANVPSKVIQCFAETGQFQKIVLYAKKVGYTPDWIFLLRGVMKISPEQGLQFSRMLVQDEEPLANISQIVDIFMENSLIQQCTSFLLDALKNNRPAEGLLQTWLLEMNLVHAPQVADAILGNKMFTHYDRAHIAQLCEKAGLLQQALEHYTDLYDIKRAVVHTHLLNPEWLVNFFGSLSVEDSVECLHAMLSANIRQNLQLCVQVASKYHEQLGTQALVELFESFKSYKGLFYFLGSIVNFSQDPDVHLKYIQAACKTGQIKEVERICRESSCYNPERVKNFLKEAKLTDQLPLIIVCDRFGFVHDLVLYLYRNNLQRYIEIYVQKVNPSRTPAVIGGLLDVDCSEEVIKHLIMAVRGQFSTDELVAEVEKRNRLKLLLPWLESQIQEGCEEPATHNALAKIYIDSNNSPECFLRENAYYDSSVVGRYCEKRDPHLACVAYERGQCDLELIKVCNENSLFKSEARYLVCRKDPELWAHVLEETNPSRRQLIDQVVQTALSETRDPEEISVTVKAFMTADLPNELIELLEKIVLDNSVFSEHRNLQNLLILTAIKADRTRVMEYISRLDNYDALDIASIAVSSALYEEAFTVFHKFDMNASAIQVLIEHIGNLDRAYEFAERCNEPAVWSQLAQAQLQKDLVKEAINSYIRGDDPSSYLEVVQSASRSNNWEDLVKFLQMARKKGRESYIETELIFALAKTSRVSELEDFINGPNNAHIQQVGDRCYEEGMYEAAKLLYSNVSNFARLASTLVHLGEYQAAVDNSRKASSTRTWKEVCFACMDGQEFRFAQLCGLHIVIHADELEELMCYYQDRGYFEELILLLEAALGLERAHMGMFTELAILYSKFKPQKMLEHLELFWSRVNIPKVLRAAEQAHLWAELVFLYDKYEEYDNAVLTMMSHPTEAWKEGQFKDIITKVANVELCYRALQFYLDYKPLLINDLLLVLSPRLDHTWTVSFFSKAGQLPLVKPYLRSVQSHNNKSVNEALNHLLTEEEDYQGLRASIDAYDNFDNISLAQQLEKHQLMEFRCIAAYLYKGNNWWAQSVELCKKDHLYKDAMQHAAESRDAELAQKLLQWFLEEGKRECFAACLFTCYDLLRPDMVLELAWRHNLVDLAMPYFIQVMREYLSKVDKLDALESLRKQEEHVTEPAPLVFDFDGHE

[6] = target: CHC22 clathrin heavy chain (endogenous) (human (endogenous in HeLa and AB1190 myotubes)) (UniProt P53675); assay: co-IP; anti-CHC22 antibody with post-nuclear HeLa lysate overnight at 4 °C, protein G Sepharose, immunoblot; control parental HeLa, also ΔSNX1/2 and ΔVPS35 lines; remark: listed apart in the source
[7] = target: CHC22 clathrin heavy chain (endogenous) (human (endogenous in HeLa and AB1190 myotubes)) (UniProt P53675); assay: condition: only in ΔSNX5/6 cells (SNX5 and SNX6 genes deleted); co-IP; anti-CHC22 antibody with lysate of ΔSNX5/6 HeLa cells (SNX5 and SNX6 genes deleted), protein G Sepharose, immunoblot

binding [1]: no binding (tested: 12.5 µg in 250 µl)
Molecule: His-SUMO-tagged CHC17 terminal domain (from UniProt Q00610 1-364) (domain or fragment)

binding [2]: no binding
Molecule: SNX1 (endogenous) (from UniProt Q13596 1-522)

binding [3]: binds
binding [4]: binds
binding [5]: binds
binding [6]: binds
binding [7]: no binding
B1: p115 (endogenous) (protein, UniProt O60763 1-962)
chain: MNFLRGVMGGQSAGPQHTEAETIQKLCDRVASSTLLDDRRNAVRALKSLSKKYRLEVGIQAMEHLIHVLQTDRSDSEIIGYALDTLYNIISNEEEEEVEENSTRQSEDLGSQFTEIFIKQQENVTLLLSLLEEFDFHVRWPGVKLLTSLLKQLGPQVQQIILVSPMGVSRLMDLLADSREVIRNDGVLLLQALTRSNGAIQKIVAFENAFERLLDIISEEGNSDGGIVVEDCLILLQNLLKNNNSNQNFFKEGSYIQRMKPWFEVGDENSGWSAQKVTNLHLMLQLVRVLVSPTNPPGATSSCQKAMFQCGLLQQLCTILMATGVPADILTETINTVSEVIRGCQVNQDYFASVNAPSNPPRPAIVVLLMSMVNERQPFVLRCAVLYCFQCFLYKNQKGQGEIVSTLLPSTIDATGNSVSAGQLLCGGLFSTDSLSNWCAAVALAHALQENATQKEQLLRVQLATSIGNPPVSLLQQCTNILSQGSKIQTRVGLLMLLCTWLSNCPIAVTHFLHNSANVPFLTGQIAENLGEEEQLVQGLCALLLGISIYFNDNSLESYMKEKLKQLIEKRIGKENFIEKLGFISKHELYSRASQKPQPNFPSPEYMIFDHEFTKLVKELEGVITKAIYKSSEEDKKEEEVKKTLEQHDNIVTHYKNMIREQDLQLEELRQQVSTLKCQNEQLQTAVTQQVSQIQQHKDQYNLLKIQLGKDNQHQGSYSEGAQMNGIQPEEIGRLREEIEELKRNQELLQSQLTEKDSMIENMKSSQTSGTNEQSSAIVSARDSEQVAELKQELATLKSQLNSQSVEITKLQTEKQELLQKTEAFAKSVEVQGETETIIATKTTDVEGRLSALLQETKELKNEIKALSEERTAIKEQLDSSNSTIAILQTEKDKLELEITDSKKEQDDLLVLLADQDQKILSLKNKLKDLGHPVEEEDELESGDQEDEDDESEDPGKDLDHI
